Measurements published in patent US9873709B2 (priority 2013, dated 2018).

What follows are compounds tested against isolated recombinant JAK1 kinase domain (Homo sapiens (Human), UniProt P23458). Settings: read-out: JAK1 Ki; isolated recombinant JAK1 kinase domain, 25 μM ATP.

Row | Ki | Compound
1 | 0.88 nM | O=C(NCC1CCC2(CCNCC2)CO1)c1ccc(Nc2nc3c(C4=CCN(C(=O)CCC(F)(F)F)CC4)cccn3n2)cc1 (centres unmarked) [Example 2-189, N-(2-oxa-9-azaspiro[5.5]undecan-3-ylmethyl)-4-[[8-[1-(4,4,4-trifluorobutanoyl)-3,6-dihydro-2H-pyridin-4-yl]-[1,2,4]triazolo[1,5-a]pyridin-2-yl]amino]benzamide]
2 | 1.76 nM | O=C(CCC(F)(F)F)N1CC=C(c2cccn3nc(Nc4ccc(C(=O)N5CCCC6(CNCCO6)C5)cc4)nc23)CC1 (centres unmarked) [Example 2-190, 4,4,4-trifluoro-1-[4-[2-[4-(1-oxa-4,8-diazaspiro[5.5]undecane-8-carbonyl)anilino]-[1,2,4]triazolo[1,5-a]pyridin-8-yl]-3,6-dihydro-2H-pyridin-1-yl]butan-1-one]
3 | 1.33 nM | O=C(CCC(F)(F)F)N1CC=C(c2cccn3nc(Nc4ccc(C(=O)N5CCC6(CCCNC6)CC5)cc4)nc23)CC1 [Example 2-191, 1-[4-[2-[4-(2,9-diazaspiro[5.5]undecane-9-carbonyl)anilino]-[1,2,4]triazolo[1,5-a]pyridin-8-yl]-3,6-dihydro-2H-pyridin-1-yl]-4,4,4-trifluoro-butan-1-one]
4 | 0.58 nM | O=C(NCC1CCCNC1)c1ccc(Nc2nc3c(C4=CCN(C(=O)CCC(F)(F)F)CC4)cccn3n2)cc1 (centres unmarked) [Example 2-192, N-(3-piperidylmethyl)-4-[[8-[1-(4,4,4-trifluorobutanoyl)-3,6-dihydro-2H-pyridin-4-yl]-[1,2,4]triazolo[1,5-a]pyridin-2-yl]amino]benzamide]
5 | 1.5 nM | O=C(NCCC1CCCNC1)c1ccc(Nc2nc3c(C4=CCN(C(=O)CCC(F)(F)F)CC4)cccn3n2)cc1 (centres unmarked) [Example 2-193, N-[2-(3-piperidyl)ethyl]-4-[[8-[1-(4,4,4-trifluorobutanoyl)-3,6-dihydro-2H-pyridin-4-yl]-[1,2,4]triazolo[1,5-a]pyridin-2-yl]amino]benzamide]
6 | 1.54 nM | NCCNC(=O)c1ccc(Nc2nc3c(C4=CCN(C(=O)CCC(F)(F)F)CC4)cccn3n2)cc1 [Example 2-194, N-(2-aminoethyl)-4-[[8-[1-(4,4,4-trifluorobutanoyl)-3,6-dihydro-2H-pyridin-4-yl]-[1,2,4]triazolo[1,5-a]pyridin-2-yl]amino]benzamide]
7 | 0.66 nM | O=C(CCC(F)(F)F)N1CC=C(c2cccn3nc(Nc4ccc(C(=O)N5CCCNCC5)cc4)nc23)CC1 [Example 2-195, 1-[4-[2-[4-(1,4-diazepane-1-carbonyl)anilino]-[1,2,4]triazolo[1,5-a]pyridin-8-yl]-3,6-dihydro-2H-pyridin-1-yl]-4,4,4-trifluoro-butan-1-one]
8 | 1.11 nM | CC1CN(C(=O)c2ccc(Nc3nc4c(C5=CCN(C(=O)CCC(F)(F)F)CC5)cccn4n3)cc2)CCN1 (centres unmarked) [Example 2-196, 4,4,4-trifluoro-1-[4-[2-[4-(3-methylpiperazine-1-carbonyl)anilino]-[1,2,4]triazolo[1,5-a]pyridin-8-yl]-3,6-dihydro-2H-pyridin-1-yl]butan-1-one]
9 | 1.71 nM | O=C(CCC(F)(F)F)N1CC=C(c2cccn3nc(Nc4ccc(C(=O)N5CCC6(CCN6)CC5)cc4)nc23)CC1 [Example 2-197, 1-[4-[2-[4-(1,7-diazaspiro[3.5]nonane-7-carbonyl)anilino]-[1,2,4]triazolo[1,5-a]pyridin-8-yl]-3,6-dihydro-2H-pyridin-1-yl]-4,4,4-trifluoro-butan-1-one]
10 | 1.45 nM | O=C(CCC(F)(F)F)N1CC=C(c2cccn3nc(Nc4ccc(C(=O)N5CCC6(CCCN6)CC5)cc4)nc23)CC1 [Example 2-198, 1-[4-[2-[4-(1,8-diazaspiro[4.5]decane-8-carbonyl)anilino]-[1,2,4]triazolo[1,5-a]pyridin-8-yl]-3,6-dihydro-2H-pyridin-1-yl]-4,4,4-trifluoro-butan-1-one]
11 | 1.04 nM | CN(Cc1ccccn1)C(=O)c1ccc(Nc2nc3c(C4=CCN(C(=O)CCC(F)(F)F)CC4)cccn3n2)cc1 [Example 2-199, N-methyl-N-(2-pyridylmethyl)-4-[[8-[1-(4,4,4-trifluorobulanoyl)-3,6-dihydro-2H-pyridin-4-yl]-[1,2,4]triazolo[1,5-a]pyridin-2-yl]amino]benzamide]
12 | 1.85 nM | O=C(CCC(F)(F)F)N1CC=C(c2cccn3nc(Nc4ccc(C(=O)N5CCN6CCCC6C5)cc4)nc23)CC1 (centres unmarked) [Example 2-200, 1-[4-[2-[4-(3,4,6,7,8,8a-hexahydro-1H-pyrrolo[1,2-a]pyrazine-2-carbonyl)anilino]-[1,2,4]triazolo[1,5-a]pyridin-8-yl]-3,6-dihydro-2H-pyridin-1-yl]-4,4,4-trifluoro-butan-1-one]
13 | 1.86 nM | CN1CC2CC(C1)N(C(=O)c1ccc(Nc3nc4c(C5=CCN(C(=O)CCC(F)(F)F)CC5)cccn4n3)cc1)C2 (centres unmarked) [Example 2-201, 4,4,4-trifluoro-1-[4-[2-[4-(3-methyl-3,6-diazabicyclo[3.2.1]octane-6-carbonyl)anilino]-[1,2,4]triazolo[1,5-a]pyridin-8-yl]-3,6-dihydro-2H-pyridin-1-yl]butan-1-one]
14 | 1.04 nM | O=C(CCC(F)(F)F)N1CC=C(c2cccn3nc(Nc4ccc(C(=O)N5CCN(C6CC6)CC5)cc4)nc23)CC1 [Example 2-202, 1-[4-[2-[4-(4-cyclopropylpiperazine-1-carbonyl)anilino]-[1,2,4]triazolo[1,5-a]pyridin-8-yl]-3,6-dihydro-2H-pyridin-1-yl]-4,4,4-trifluoro-butan-1-one]
15 | 1.52 nM | Cn1ccnc1CN1CCN(C(=O)c2ccc(Nc3nc4c(C5=CCN(C(=O)CCC(F)(F)F)CC5)cccn4n3)cc2)CC1 [Example 2-203, 4,4,4-trifluoro-1-[4-[2-[4-[4-[(1-methylimidazol-2-yl)methyl]piperazine-1-carbonyl]anilino]-[1,2,4]triazolo[1,5-a]pyridin-8-yl]-3,6-dihydro-2H-pyridin-1-yl]butan-1-one]
16 | 0.56 nM | CC(=O)N1CC2(C1)CN(C(=O)c1ccc(Nc3nc4c(C5=CCN(C(=O)CCC(F)(F)F)CC5)cccn4n3)cc1)C2 [Example 2-204, 1-[4-[2-[4-(6-acetyl-2,6-diazaspiro[3.3]heptane-2-carbonyl)anilino]-[1,2,4]triazolo[1,5-a]pyridin-8-yl]-3,6-dihydro-2H-pyridin-1-yl]-4,4,4-trifluoro-butan-1-one]
17 | 1.22 nM | CN1CC2CN(C(=O)c3ccc(Nc4nc5c(C6=CCN(C(=O)CCC(F)(F)F)CC6)cccn5n4)cc3)CC(C1)O2 [Example 2-205, 4,4,4-trifluoro-1-[4-[2-[4-(7-methyl-9-oxa-3,7-diazabicyclo[3.3.1]nonane-3-carbonyl)anilino]-[1,2,4]triazolo[1,5-a]pyridin-8-yl]-3,6-dihydro-2H-pyridin-1-yl]butan-1-one]
18 | 4.58 nM | Cc1cncc(CNC(=O)c2ccc(Nc3nc4c(C5=CCN(C(=O)CCC(F)(F)F)CC5)cccn4n3)cc2)c1 [Example 2-206, N-[(5-methyl-3-pyridyl)methyl]-4-[[8-[1-(4,4,4-trifluorobutanoyl)-3,6-dihydro-2H-pyridin-4-yl]-[1,2,4]triazolo[1,5-a]pyridin-2-yl]amino]benzamide]
19 | 2.23 nM | NCC1CN(C(=O)c2ccc(Nc3nc4c(C5=CCN(C(=O)CCC(F)(F)F)CC5)cccn4n3)cc2)C1 [Example 2-207, 1-[4-[2-[4-[3-(aminomethyl)azetidine-1-carbonyl]anilino]-[1,2,4]triazolo[1,5-a]pyridin-8-yl]-3,6-dihydro-2H-pyridin-1-yl]-4,4,4-trifluoro-butan-1-one]
20 | 0.95 nM | CC1CCN(C2CCN(C(=O)c3ccc(Nc4nc5c(C6=CCN(C(=O)CCC(F)(F)F)CC6)cccn5n4)cc3)CC2)CC1 [Example 2-208, 4,4,4-trifluoro-1-[4-[2-[4-[4-(4-methyl-1-piperidyl)piperidine-1-carbonyl]anilino]-[1,2,4]triazolo[1,5-a]pyridin-8-yl]-3,6-dihydro-2H-pyridin-1-yl]butan-1-one]
21 | 1.99 nM | COCCN(C(=O)c1ccc(Nc2nc3c(C4=CCN(C(=O)CCC(F)(F)F)CC4)cccn3n2)cc1)C1CCN(C)CC1 [Example 2-209, N-(2-methoxyethyl)-N-(1-methyl-4-piperidyl)-4-[[8-[1-(4,4,4-trifluorobutanoyl)-3,6-dihydro-2H-pyridin-4-yl]-[1,2,4]triazolo[1,5-a]pyridin-2-yl]amino]benzamide]
22 | 0.81 nM | O=C(CCC(F)(F)F)N1CC=C(c2cccn3nc(Nc4ccc(C(=O)N5CCC(N6CCOCC6)CC5)cc4)nc23)CC1 [Example 2-210, 4,4,4-trifluoro-1-[4-[2-[4-(4-morpholinopiperidine-1-carbonyl)anilino]-[1,2,4]triazolo[1,5-a]pyridin-8-yl]-3,6-dihydro-2H-pyridin-1-yl]butan-1-one]
23 | 0.91 nM | CN(CCc1cccnc1)C(=O)c1ccc(Nc2nc3c(C4=CCN(C(=O)CCC(F)(F)F)CC4)cccn3n2)cc1 [Example 2-212, N-methyl-N-[2-(3-pyridyl)ethyl]-4-[[8-[1-(4,4,4-trifluorobutanoyl)-3,6-dihydro-2H-pyridin-4-yl]-[1,2,4]triazolo[1,5-a]pyridin-2-yl]amino]benzamide]
24 | 0.75 nM | CC(C)(CNC(=O)c1ccc(Nc2nc3c(C4=CCN(C(=O)CCC(F)(F)F)CC4)cccn3n2)cc1)N1CCOCC1 [Example 2-213, N-(2-methyl-2-morpholino-propyl)-4-[[8-[1-(4,4,4-trifluorobutanoyl)-3,6-dihydro-2H-pyridin-4-yl]-[1,2,4]triazolo[1,5-a]pyridin-2-yl]amino]benzamide]
25 | 0.61 nM | CN1CCCCC1CNC(=O)c1ccc(Nc2nc3c(C4=CCN(C(=O)CCC(F)(F)F)CC4)cccn3n2)cc1 (centres unmarked) [Example 2-214, N-[(1-methyl-2-piperidyl)methyl]-4-[[8-[1-(4,4,4-trifluorobutanoyl)-3,6-dihydro-2H-pyridin-4-yl]-[1,2,4]triazolo[1,5-a]pyridin-2-yl]amino]benzamide]
26 | 0.55 nM | Cc1ccc(C2CCN(C(=O)c3ccc(Nc4nc5c(C6=CCN(C(=O)CCC(F)(F)F)CC6)cccn5n4)cc3)CC2)nc1 [Example 2-215, 4,4,4-trifluoro-1-[4-[2-[4-[4-(5-methyl-2-pyridyl)piperidine-1-carbonyl]anilino]-[1,2,4]triazolo[1,5-a]pyridin-8-yl]-3,6-dihydro-2H-pyridin-1-yl]butan-1-one]
